Over roughly 110,000 compounds, “z-score” has its median near -0.1; the highest 2% begin near 2. The list shows a part of the results. Active and inactive are the calls of the source.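 The calls were made as follows: active = z-score in the third read window above 3 or below -3; inactive = the rest.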

This assay has as its target Metabotropic glutamate receptor 8 (Rattus norvegicus) (UniProt P70579). The experiment in a line: rat mGluR8 modulators via GIRK flux, primary screen, cell-based, thallium flux, HTS (AID 488969). Conditions: HEK293 rat mGluR8, GIRK (G protein-gated inwardly rectifying potassium channel) thallium flux, FluoZin2; at 10 µM; stronger effect = higher value; submaximal glutamate (EC20) added with thallium.
Sequence of UniProt P70579 (P70579 whole entry, looked up): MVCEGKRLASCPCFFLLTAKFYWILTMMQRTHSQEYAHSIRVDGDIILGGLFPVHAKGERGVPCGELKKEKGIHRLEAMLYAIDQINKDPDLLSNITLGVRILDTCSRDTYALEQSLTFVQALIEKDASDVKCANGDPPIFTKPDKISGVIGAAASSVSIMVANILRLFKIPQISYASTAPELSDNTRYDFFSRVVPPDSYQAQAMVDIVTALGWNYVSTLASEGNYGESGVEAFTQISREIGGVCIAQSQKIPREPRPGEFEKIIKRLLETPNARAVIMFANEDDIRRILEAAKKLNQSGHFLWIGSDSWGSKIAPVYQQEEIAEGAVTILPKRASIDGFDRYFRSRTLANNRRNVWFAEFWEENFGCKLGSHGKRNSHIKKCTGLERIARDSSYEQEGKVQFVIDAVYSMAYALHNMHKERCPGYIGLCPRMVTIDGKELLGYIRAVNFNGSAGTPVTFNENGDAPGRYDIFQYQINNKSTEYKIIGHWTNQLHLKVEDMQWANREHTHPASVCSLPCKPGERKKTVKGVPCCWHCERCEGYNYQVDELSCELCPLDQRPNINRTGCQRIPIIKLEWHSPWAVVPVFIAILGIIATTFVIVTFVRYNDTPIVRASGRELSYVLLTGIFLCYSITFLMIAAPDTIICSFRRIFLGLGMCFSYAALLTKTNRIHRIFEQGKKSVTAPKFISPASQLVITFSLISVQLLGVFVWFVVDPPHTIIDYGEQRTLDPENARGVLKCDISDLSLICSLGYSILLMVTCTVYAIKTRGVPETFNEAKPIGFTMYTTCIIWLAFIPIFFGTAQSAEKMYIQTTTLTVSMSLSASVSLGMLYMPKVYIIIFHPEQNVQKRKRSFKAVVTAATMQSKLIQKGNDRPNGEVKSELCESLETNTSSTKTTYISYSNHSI
Take `COc1cccc(/C=c2\sc3nc(-c4cccs4)nn3c2=O)c1OC`: the z-score came out at 0.108.

For `Cc1cc(C)c2nc(N3CCC(C(=O)N4CCN(C(=O)c5ccco5)CC4)CC3)sc2c1`, the z-score was -0.252.

`Cn1c(CSc2nc3ccccc3s2)n[nH]c1=S` displayed a z-score of 1.41.

On to `CS(=O)(=O)Nc1ccc(C(=O)NC2CCCC2)cc1`, for which the z-score is -0.00695.

Turning to `CCN(CC)S(=O)(=O)c1ccc(NC(=O)Nc2cccc(C(F)(F)F)c2)cc1`, the z-score is -0.977.

`O=C(NNc1ncc(C(F)(F)F)cc1Cl)c1c(Cl)cccc1Cl` had a z-score of 0.951.

Compound `COc1cccc(Cn2c(C3CC3)nc3ccc(NC(=O)c4ccco4)cc3c2=O)c1` came in with a z-score of -0.429.

`CCC1(C)CC(c2nc(-c3ccc(OC)cc3)cs2)CCS1` (configuration not stated) yielded a z-score of -0.645.

Compound `Cc1cc(C)nc(SC(C)C(=O)O)n1` (configuration not stated) returned a z-score of -0.55.

As for `Cc1ccc(S(=O)(=O)N2CCN(C)CC2)cc1-c1nnc2c3ccccc3c(C)nn12`, the z-score is active: 9.27.

`Cc1ccc(C)c(CN2CCCN(C(=O)Cn3ncc4c3-c3ccccc3OC4)C2)c1` showed a z-score of 1.33.

Consider `COCCNC(=O)Cn1cnc2c1c(=O)n(C)c(=O)n2C`, for which the z-score stood at 0.12.

`Cc1ccc(CCNC(=O)C2CCN(S(=O)(=O)N3CCC4(CC3)OCCO4)CC2)cc1` yielded a z-score of 0.0322.

Compound `COc1ccc(OCC(=O)Nc2ccc(S(=O)(=O)N3CCCCCC3)cc2)cc1` gave a z-score of 0.0788.

Regarding `Cc1ccccc1-n1c(CSC(=N)N)nc2ccccc2c1=O`, the z-score is -0.178.

`Cc1c(Br)c([N+](=O)[O-])nn1CCCC(=O)Nc1sc2c(c1C(N)=O)CCC(C)C2` (configuration not stated) displayed a z-score of -0.142.

As to `Cc1c(C(=O)NCc2ccccc2)oc2c1C(=O)CCC2`, the z-score is 0.368.

As to `Cc1ccc(NC(=O)CN(C)C(=O)CSc2n[nH]c(N)n2)cc1`, the z-score is -0.342.

`CC(=O)C1=C(O)C(=O)N(CC#N)C1c1cccs1` (configuration not stated) showed a z-score of -0.0406.

As for `COc1ccc(C(=O)NNS(=O)(=O)c2ccccc2)cc1`, the z-score was determined as 0.128.

Compound `CCC1(C)Cc2ccccc2C(Nc2c(C)n(C)n(-c3ccccc3)c2=O)=N1` (configuration not stated) displayed a z-score of 1.7.

For `Cc1cc(C)nc(NS(=O)(=O)c2ccc(N3C(=O)c4ccccc4C3=O)cc2)n1`, the z-score is -0.334.

On to `COc1ccc(NC(=O)c2c(-c3ccccc3)noc2C)c(OC)c1`, for which the z-score is -1.36.

Turning to `CC(=O)Nc1c(Br)cc(N2C(=O)CCC2=O)cc1Br`, the z-score was -0.17.

Turning to `O=C(O)CSC1CC(=O)N(c2ccc(Cl)c(Cl)c2)C1=O` (configuration not stated), the z-score stood at 0.483.

The compound `CCCCSc1nc(N)c(C#N)c(-c2cccs2)c1C#N` gave a z-score of -0.0123.

In turn, `CCC(C)[C@H](N)c1nnc(SCc2cccc(F)c2)o1` (some centres not stated) displayed a z-score of -0.133.

`CCNC(=O)n1nccc1C(C)Oc1ccccc1` (configuration not stated) gave a z-score of -0.015.

In turn, `O=C(O)c1c(Cl)c(Cl)c(Cl)c(Cl)c1C(=O)N1CCCC1` had a z-score of -0.0252.

Turning to `Cn1c(=O)[nH]c(=O)c2[nH]c(NCCCN3CCOCC3)nc21`, the z-score amounted to 0.371.

Turning to `COC(=O)c1sc(S(=O)(=O)Nc2ccc3cn[nH]c3c2)c(C(=O)OC)c1C`, the z-score was -0.526.

Turning to `O=C(Nc1ccc2c(c1)OCO2)c1ccc(Br)s1`, the z-score is -0.265.

`COCCNC(=O)CN(C)S(=O)(=O)c1ccc2c(c1)OCCO2`: the z-score was -0.231.

In turn, `C/C(=N\NC(=O)C1COc2ccccc2O1)c1cccs1` (configuration not stated) displayed a z-score of 0.212.

Consider `CCn1c(=O)cc(SCC(=O)NCc2cccnc2)c2ccccc21`, for which the z-score is 0.0104.

As for `COc1c2ccoc2nc2c(OC)cccc12`, the z-score was -0.0825.

For `Cn1c(NC(=O)c2cccc(C(F)(F)F)c2)cc(=O)n(C)c1=O`, the z-score is -0.0357.

The compound `CN1CCc2nc(SCC(=O)Nc3ccc(F)cc3)c(C#N)cc2C1` gave a z-score of -0.0192.

With `COC(=O)C1=C(O)/C(=C\c2ccc(CNC(=O)C(=O)Nc3ccc(C)cc3)o2)N=C1C`, the z-score was -0.511.

`O=S(=O)(/C=C/c1ccccc1)N1CCN(c2cccc(Cl)c2)CC1` came in with a z-score of -0.286.

Compound `COc1cc2nc(SCC(=O)NC3CC3)n(CCC3=CCCCC3)c(=O)c2cc1OC` registered a z-score of 0.128.

In turn, `O=C(CSc1nnc(Cc2ccccc2)n1-c1cccc(Cl)c1)NNC(=O)Cc1ccccc1` came in with a z-score of 1.05.

On to `Cc1sc(NC(=O)C2C3CCC(O3)C2C(=O)O)c(C(=O)OC(C)C)c1-c1ccc(Cl)cc1` (configuration not stated), for which the z-score is -0.429.

As to `CCOc1ccc(C(=O)Nc2ccccc2CC)cc1[N+](=O)[O-]`, the z-score was -0.15.

Consider `COc1cc(-c2nc3cnccn3c2Nc2ccc(C)cc2)ccc1O`, for which the z-score worked out at 0.106.

Compound `COc1ccccc1NS(=O)(=O)c1ccc(Cl)c(NC(=O)CN2C(=O)c3ccccc3C2=O)c1` returned a z-score of -0.297.

Compound `COc1ccc(OC)c(NC(=O)CSc2ncnc3c2cnn3-c2ccccc2Cl)c1` had a z-score of 1.05.

As to `CN(C)C(=O)NC1CCCCCCCCCCC1`, the z-score was -0.137.

`COc1ccc(-n2c(SCC(N)=O)nnc2-c2cccnc2)cc1` displayed a z-score of 1.02.

On to `COc1cc(CN2CCN(c3ccccc3F)CC2)c([N+](=O)[O-])cc1OC`, for which the z-score was -0.0486.

Take `c1ccc(-c2nc(CSc3nnnn3-c3ccccc3)cs2)cc1`: the z-score was -0.317.

`O=S(=O)(c1cccs1)N1CN(Cc2ccccc2)c2nc3ccccc3nc21` had a z-score of -0.0816.

In turn, `FC(F)(F)c1cccc(-c2noc(CN3CCOCC3)n2)c1` returned a z-score of -2.25.

The compound `O=C(c1cc2c(ccc3ccccc32)oc1=O)N1CCN(CCO)CC1` registered a z-score of -1.64.

`CCOC(=O)N1CCN(C(=O)c2ccc(C)c(S(=O)(=O)Nc3cccc(C)c3C)c2)CC1` showed a z-score of -0.291.

`COC(=O)c1ccc(N2CCC(c3cc(-c4ccc(OC)cc4)n[nH]3)CC2)c([N+](=O)[O-])c1` yielded a z-score of 0.106.

The compound `COc1ccc(-n2nnc3c(SCC(=O)NCC4CCCO4)ncnc32)cc1` (configuration not stated) had a z-score of 0.719.

On to `CCNC(=O)COC(=O)C1CCC(=O)N(c2ccc(OC)cc2)C1c1ccc(OC)cc1` (configuration not stated), for which the z-score is -0.115.

Take `COc1ccc(C(=O)c2sc3nc(C)cc(-c4cccs4)c3c2N)cc1OC`: the z-score is -0.587.

`Cc1ccc(C(=O)NCC2(c3ccccc3)CCCC2)cc1` registered a z-score of -0.567.

In turn, `Cn1cnc2cc(OC(=O)c3ccccc3)ccc21` returned a z-score of -0.787.

Take `COc1ccccc1-n1c(SCC(=O)Nc2nnc(C)s2)nc2c(c1=O)SCC2`: the z-score was -0.363.

As to `CCn1c(N2CCN(C(=S)NCCc3ccccc3)CC2)nc2ccccc21`, the z-score was -0.543.

In turn, `CCOC(=O)C1=C(CN2CCc3ccccc32)NC(=O)NC1c1cccc([N+](=O)[O-])c1` (configuration not stated) yielded a z-score of -0.00369.

`COC(=O)CN1C(=O)C2(C(C#N)=C(N)Oc3n[nH]c(-c4cccs4)c32)c2ccccc21` (configuration not stated): the z-score is 0.805.

For the compound `Cc1ccc(NC(=O)CSc2nnc(CCNC(=O)OC(C)(C)C)o2)c(C)c1`, the z-score is 2.11.

For `CCc1ccc2[nH]c(=O)c(CN(Cc3ccccc3)Cc3nnnn3Cc3ccco3)cc2c1`, the z-score amounted to 1.78.

For `Cc1ccc(S(=O)(=O)Nc2cc(C(F)(F)F)ccc2N2CCOCC2)cc1`, the z-score was determined as 0.266.

As to `c1ccc2c(c1)OC(CCCN1CCCCC1)c1ccccc1S2` (configuration not stated), the z-score was 0.834.

In turn, `CN(Cc1nc2ccccc2c(=O)[nH]1)c1ccccc1` returned a z-score of -0.0308.

`COc1ccc(NC(=O)C23CC4CC(C2)CC(n2cnc(Br)n2)(C4)C3)c(OC)c1` showed a z-score of -0.191.

The compound `COCc1n[nH]c(=S)n1-c1ccccc1` gave a z-score of 0.288.

In turn, `CCOc1ccc(C(=O)NC(C(=O)NCc2ccccn2)C(C)C)cc1` (configuration not stated) yielded a z-score of 0.598.

Regarding `COc1cc(C2CC(=O)c3c(ccc4ccccc34)N2)ccc1O` (configuration not stated), the z-score was found to be 0.11.

Regarding `COc1cc(C2CC(=O)Nc3cc(C)c(C)cc32)cc(OC)c1OC` (configuration not stated), the z-score is -0.107.

Consider `COc1ccc(-c2nn3c(-c4ccco4)nnc3s2)cc1OC`, for which the z-score is -0.544.

`O=C(c1cc(-c2ccncc2)nc2ccc(Cl)cc12)N1CCN(C(=O)C2CCCO2)CC1` (configuration not stated): the z-score was -0.0919.

Regarding `Cc1cc(C)nc(-n2nc(C)c3c(=O)[nH]c(C(F)(F)F)nc32)n1`, the z-score turned out to be 0.253.

Turning to `CC(=O)c1cccc(NC(=O)Nc2ccc(C(=O)N3CCCC3)cc2)c1`, the z-score is -0.503.

For the compound `CCCN(C(=S)Nc1ccccc1)C1CCS(=O)(=O)C1` (configuration not stated), the z-score is -0.365.

With `CCOc1ccc2nc(Nc3nc4ccc(NC(C)=O)cc4s3)sc2c1`, the z-score was -0.222.

For the compound `COc1ccc2cc(C#N)c(SCC(=O)N3CCCC3)nc2c1`, the z-score amounted to 0.12.

Consider `CCNc1ccc(C(=O)OCC(=O)NCc2ccccc2Cl)cc1[N+](=O)[O-]`, for which the z-score was -0.612.

On to `Cc1ccc(NC(=O)CCC(=O)NNC(=O)COc2ccccc2)c(C)c1`, for which the z-score was -0.385.

`CCCCNc1c([N+](=O)[O-])cc(C(=O)O)cc1[N+](=O)[O-]` returned a z-score of -0.18.

`O=c1[nH]c(N2CCN(c3ccccc3)CC2)nc2c1CCCC2` came in with a z-score of -0.323.

Turning to `Cc1cccc2cc(CN(Cc3ccc(F)cc3)C(=O)C(F)(F)F)c3nnnn3c12`, the z-score is -0.681.

The compound `O=C(O)c1ccc(-n2nc(C(F)(F)F)c3c2-c2ccoc2CC3)cc1` displayed a z-score of -0.736.

Consider `CCS(=O)(=O)N1CCN(C(=O)c2cccnc2)CC1`, for which the z-score is -0.101.

`COc1ccccc1NS(=O)(=O)c1cccs1` registered a z-score of -0.598.

For `Cc1ccccc1N1OC2C(=O)N(c3ccc(F)cc3)C(=O)C2C1c1ccccn1` (configuration not stated), the z-score came to 0.411.

On to `O=C(OCc1nnc(-c2ccccc2)o1)C1=COCCO1`, for which the z-score was -0.205.

In the case of `C/C(N)=C(/C#N)C(=O)COC(=O)c1cc(S(=O)(=O)N2CCCCC2)ccc1C`, the z-score is -0.368.

In the case of `CCOc1ccc(C2C(C(=O)OC)=C(C)N=C3SCCC(=O)N32)cc1OCC` (configuration not stated), the z-score worked out at 1.75.

`COC(=O)Nc1sc2c(c1C(=O)NCc1ccco1)CCC2`: the z-score is -0.656.

As for `Cc1nn(C)c(C(=O)Nc2ccc(S(=O)(=O)NC34CC5CC(CC(C5)C3)C4)cc2)c1Br`, the z-score is -0.0632.

In turn, `Cc1ccc(-c2cc(NC(=O)CSc3n[nH]c(N)n3)n(-c3ccccc3)n2)cc1` displayed a z-score of 0.0109.

With `Cc1ccc(NC(=O)Cn2cnc3c(cnn3C(C)(C)C)c2=O)cc1`, the z-score was -0.496.

Take `Cc1ccc(C2C3=C(NCCN=C3c3ccccc3)C(=O)N2c2ccccc2)cc1` (configuration not stated): the z-score was active: 3.18.

The compound `C=C(C)c1cccc(C(C)(C)NC(=O)N2CCN(CC(N)=O)CC2)c1` had a z-score of -0.369.

Compound `CC(C)c1cc(NC(=O)C(C)(C)C)cc(C(C)C)c1O` came in with a z-score of 0.939.

In turn, `CCCCOc1ccc(C(C)NC(=O)C2CCCN(S(=O)(=O)CC)C2)cc1` (configuration not stated) had a z-score of 0.227.

`CN1CCN(C(=O)c2ccc(N3CCCC3=O)cc2)CC1` had a z-score of -0.0924.

The compound `CCOc1ccc(CCNC(=O)c2cccc(N3CCCC3=O)c2)cc1OCC` showed a z-score of -0.162.

In the case of `Cc1cccc(NC(=O)c2c(C)cc(=O)oc2C)n1`, the z-score came to 0.0459.

With `CCn1c(Cc2ccccc2)nnc1SCc1nc2ccccc2c(=O)[nH]1`, the z-score worked out at 0.0899.

Take `CCCCN1C(=O)NC(NC(C)=O)(C(F)(F)F)C1=O` (configuration not stated): the z-score is 0.244.

The values above are taken from PubChem BioAssay AID488969 (Vanderbilt High Throughput Screening Facility, 2010).
